# Among all 150,000 compounds or so, about 540 (0.36%) showed an effect of 50% or more. This is one part of the list.
# System: Plasmodium falciparum
# Assay: Primary screen in NF54 nanoGlo assay, in single point, at 2uM, 72h; a lower Z score goes with more inhibition
# Type: functional, Erythrocyte
# Conditions: timepoint 72 hour
SMILES,% Inhibition [%],Z score
Cc1cccnc1CN(Cc1ccccc1)C(=O)[C@@H]1CC[C@H](N)C1,-5,0.66
CCOC(CN1CC(=O)NC2CCCCC21)OCC (centres undefined),-10,1.97
O=C(Nc1nc2c(s1)CN(Cc1ccccc1)CC2)c1cc(Cl)sc1Cl,21,-2.61
O=C(CCc1cccc(Cl)c1)N1CC(C(F)F)C1,-7,0.82
O=C(NCC[C@H](O)c1ccccc1)C(F)(F)C1(O)CCC1,9,-0.88
c1ccc(CN2CC3CCC(C2)C3NCc2cc[nH]n2)cc1 (centres undefined),-7,0.85
O=C1NC2(CCCC2)C(=O)N1CCn1ccc(C(F)(F)F)n1,-6,1.11
O=C(Nc1ccccc1Cl)c1cccc(COc2cc(Cl)ccc2Cl)c1,-1,0.08
CN(C[C@H](O)CN1CCOCC1)C(=O)c1cc2sccc2[nH]1,0,-0.06
CC(NC[C@@H](O)Cc1ccccc1)c1cn2ccccc2n1 (some centres undefined),1,-0.17
O=C(Nc1nc2ccccc2s1)[C@@H]1CCCN1C(=O)c1ccco1,-9,1.34
CC(C)NC(=O)NC(=O)CN1CCCCCC1,1,-0.19
COc1cccc(NC(=O)CNC(=O)c2cn(-c3ccccc3OC)c(=O)c3ccccc23)c1,-6,0.7
CC(C)c1ccc([C@@H]2CCCCN2)cc1,-8,1.03
CC1(C)CN(C(=O)Nc2cccc(-n3cn[nH]c3=O)c2)C1(C)C,1,-0.12
Cn1cc(-c2ccc(F)cc2)cc1C(=O)O,10,-0.89
CCOC(=O)c1cc(OC(=O)c2ccc(F)cc2)n(-c2ccccc2)n1,-7,1.07
COC(C)(C)CS(=O)(=O)N1CC[C@]2(C1)CC2(F)F,-10,0.87
CO[C@H]1CCN(CC(=O)NC2CCCCCC2)C1,-8,1.55
COCC1(S(=O)(=O)N[C@@H]2C[C@H]2c2ccc(Cl)c(F)c2)CC1,-46,5.34
C=CCN(CCC#N)c1nc(C)nc2c1cnn2C,-3,0.5

SMILES,% Inhibition [%],Z score
Cc1cc(C(=O)Nc2ccc(-c3nnnn3C(C)C)c(F)c2)n(C)n1,-5,0.62
CC(C)NC(=O)[C@@H]1CCCN1C(=O)c1cccs1,-7,1.02
O=C(C[C@@H](Cn1cnnn1)c1ccc(Cl)cc1)NCC1CCOCC1,-1,0.12
Cc1ccc(N(C)C(=O)Cn2ncn(C)c2=O)nc1,-7,1.07
CC1CCC2(CC1)OC[C@@H](C(=O)N1CCN(C)CC1)N2C(=O)c1cccc(C(F)(F)F)c1 (some centres undefined),-7,1.28
Cc1sc(-c2cc(C(F)(F)F)on2)cc1S(=O)(=O)NC[C@H]1CNCCO1,1,-0.16
O=C1COc2ccc(S(=O)(=O)Nc3nccc(C4CC4)n3)cc2N1,0,0
Cc1cc(C)c2nc(NC(=O)c3ccc(S(=O)(=O)N4CCCCCC4)cc3)sc2c1,0,0.03
Cc1ccc(F)c(CN2CCN[C@H](C(=O)NCc3ccccn3)C2)c1Cl,3,-0.45
O=C(C1CCN(S(=O)(=O)c2cccc3nonc23)CC1)N1CCC(Cc2nncn2Cc2ccccc2)CC1,-27,3.14
Cc1nn(CN2CC(C)OC(C)C2)c(=S)s1 (centres undefined),-4,0.65
CCOC(=O)C[C@H](N)c1ccc(F)cc1,-17,1.82
CC1CCCC(OCc2cccc(NC(=O)c3c[nH]c(=O)c(Cl)c3)c2)C1 (centres undefined),-13,1.33
O=C(c1cc2cc(F)ccc2s1)N1CCC[C@@H]1Cn1nccn1,-9,1.61
Cc1c(Cl)c(C(=O)NC[C@]2(O)CCCC(C)(C)C2)nn1C,4,-0.68
C#CCNC(=O)C(C#N)C(=O)CC(C)c1ccc(F)cc1 (centres undefined),14,-1.66
COc1c(F)cc([C@H]2CC(=O)NCc3nc4c(C)cccn4c32)cc1Cl,-16,3.3
COc1cc2nc(-c3cc4c(c(OC)c3)OCCN(C(C)=O)C4)cc(C)c2cc1OC,10,-1.39
CC(=O)N(C)[C@@H](C)C1=CCN(CC(=O)Nc2cnccn2)CC1,-1,0.16
Cc1cc(O[C@H]2CCN(S(=O)(=O)c3ccccc3)C2)cc(=O)n1C,-2,0.38
N#CCCn1nnnc1-c1ccccn1,-14,1.18

# Reference: ChEMBL document CHEMBL4888484, “Replenishing the malaria drug discovery pipeline: Screening and hit evaluation of the MMV Hit Generation Library 1 (HGL1) against asexual blood stage Plasmodium falciparum ,using a nano luciferase reporter read-out” (2022)
